Experimental data from patent US7232660 (IMMUNEX, dated 2007).

Columns and labels:
Assay in all cases: cell-based or functional assay
[1] = target: anti-CD30 monoclonal antibody M44
[2] = target: T1, murine CD30-L, full length, membrane-bound (murine, UniProt P32972 1-239)
T1 sequence: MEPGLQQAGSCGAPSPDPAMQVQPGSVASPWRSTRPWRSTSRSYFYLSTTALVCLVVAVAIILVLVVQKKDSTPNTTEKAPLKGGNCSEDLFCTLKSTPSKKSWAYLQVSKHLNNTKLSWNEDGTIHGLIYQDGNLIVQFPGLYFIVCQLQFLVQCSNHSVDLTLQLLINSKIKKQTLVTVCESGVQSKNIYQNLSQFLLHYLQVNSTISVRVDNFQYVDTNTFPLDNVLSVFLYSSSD

[3] = target: T2, human CD30-L, full length, membrane-bound (human, UniProt P32971 1-234)
T2 sequence: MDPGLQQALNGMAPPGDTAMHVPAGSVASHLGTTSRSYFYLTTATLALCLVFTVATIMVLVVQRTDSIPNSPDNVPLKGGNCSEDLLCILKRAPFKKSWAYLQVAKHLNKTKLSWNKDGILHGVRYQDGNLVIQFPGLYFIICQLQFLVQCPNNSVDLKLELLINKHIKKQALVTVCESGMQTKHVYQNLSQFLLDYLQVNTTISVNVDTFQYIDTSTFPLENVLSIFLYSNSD

[4] = target: anti-CD30 monoclonal antibody M67

Measured: blocking of enhanced proliferation of HDLM-2 and L-540 cells

B1: soluble human CD30/Fc fusion protein (Fc fusion)
chain: FPQDRPFEDTCHGNPSHYYDKAVRRCCYRCPMGLFPTQQCPQRPTDCRKQCEPDYYLDEADRCTACVTCSRDDLVEKTPCAWNSSRVCECRPGMFCSTSAVNSCARCFFHSVCPAGMIVKFPGTAQKNTVCEPASPGVSPACASPENCKEPSSGTIPQAKPTPVSPATSSASTMPVRGGTRLAQEAASKLTRAPDSPSSVGRPSSDPGLSPTQPCPEGSGDCRKQCEPDYYLDEAGRCTACVSCSRDDLVEKTPCAWNSSRTCECRPGMICATSATNSCARCVPYPICAGETVTKPQDMAEKDTTFEAPPLGTQPDCNPTPENGEAPASTSPTQSLLVDSQASKTLPIPTSAPVALSSTGK[not shown - human IgG1 Fc]
50 fold excess: all assays above
